Measured values from PubChem BioAssay AID1508624 (National Center for Advancing Translational Sciences (NCATS), 2021).
Screen size: about 48,000 compounds; about 120 (0.25%) were called active. Another 4% or so got no clear call; they are omitted. Calls follow the shape of the dose curve; as a rule, active = well fitted activation curve with a large enough effect; inconclusive = small, poorly fitted or top-dose-only effect, or another doubt; inactive = no such curve, though single readings can be large or run the other way. This is one part of the list.

assay: Primary qHTS for Identification of Small Molecule Activators of Huntingtin-Antisense Promoter Activity; settings: HEK293 HTT-AS promoter firefly luciferase reporter (activity 0% = vehicle and -100% = no light), 24 h; series mostly up to 57.5 µM; activity change, positive = activation: at the top concentration; also: nearly all actives have a fitted effect of over 55% in size
Method in brief: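 HEK293 cells carrying firefly luciferase reporters were seeded at 2,500 per well in Opti-MEM and cultured for 24 h. They were then treated with compounds at up to 57.5 uM final for 24 h at 37 degrees C before Dual-Glo luminescence readout.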

Activity change, positive = activation, inactive:
CN(C)c1ccc(-c2nc(-c3ccccn3)no2)cc1[N+](=O)[O-] -54%, Cc1cccc(NC(=O)C(c2ccccc2)N2Cc3ccccc3C2=O)c1C (stereo unspecified) 0.296%, Cc1noc2ncnc(Nc3ccc(F)cc3)c12 -0.991%, COC(=O)c1sccc1S(=O)(=O)N(CC(=O)Nc1ccc(C)cc1)c1ccccc1 6.87%, COc1ccccc1N1CCN(C(=O)CCn2cnc3onc(-c4ccc(F)cc4)c3c2=O)CC1 -9.59%, Cc1cc(F)ccc1NC(=O)C1CCCN(c2nnc(-n3c(C)ccc3C)s2)C1 (stereo unspecified) -13.3%, Cc1cc(C)cc(N2C(=O)CS(=O)(=O)C23C(=O)N(Cc2ccc(F)cc2)c2ccc(C)cc23)c1 (stereo unspecified) -10.3%, COc1ccc(NC(=O)Cn2c(=O)nc(-c3ccccc3)c3ccccc32)cc1OC -4.76%, O=C(O)CCCc1ccccc1 0.775%, Cn1ncc(C(=O)N2CCN(c3ccccc3)CC2)c1C1CCN(C(=O)OC(C)(C)C)CC1 -9.75%, Cc1ccc(CCNC(=O)NCc2noc3ccc(C)cc23)cc1 -11.6%, CCOc1ccc(-c2cc3nc(C4CCN(C(=O)OC(C)(C)C)CC4)c(C(=O)Nc4ccc(C(=O)OC)cc4)cn3n2)cc1 23.4%, COc1ccc2oc(=O)c(C(=O)NCCc3c(C)[nH]c4c(C)cccc34)cc2c1 -19.1%, COC(=O)c1cc(NC(=O)CCS(=O)(=O)c2cc(Br)cc3c2N(C(=O)C2CC2)CC3)cc(C(=O)OC)c1 -9.29%, CCOc1cc2[nH]c(=O)n(CCC(=O)N3CCN(c4cccc(Cl)c4)CC3)c(=O)c2cc1OCC -3.89%, CCOC(=O)Cn1nc(C)c(NC(=O)COc2ccc(OC)cc2)c1C -0.183%, CCn1c2ccccc2c2cc(NC(=O)COc3cc(C)c(Cl)c(C)c3)ccc21 10.1%, Cc1ccccc1C(=O)Nc1ccc(NC(=O)c2cccs2)cc1 -9.29%, CCOc1ccc(-c2csc3ncnc(Nc4cccc(O)c4)c23)cc1 -29.4%, CCOC(=O)c1c(C)oc2nc(C)nc(N3CCN(c4ccc(C)cc4C)CC3)c12 -16.6%, CC(=O)N1CCCc2cc(S(=O)(=O)N3CCC(C(=O)NCc4ccc(F)cc4)CC3)ccc21 -27%, CC1(C)O[C@@H]2C[C@H]3[C@@H]4CCC5=CC(=O)C=C[C@]5(C)[C@@]4(F)[C@@H](O)C[C@]3(C)[C@]2(C(=O)CO)O1 -7.18%, COc1ccccc1N1CCN(C(=O)C2CCN(S(=O)(=O)c3cccc4nonc34)CC2)CC1 -19.3%, Nc1ncc(S(=O)(=O)NCc2ccccc2F)cn1 -3.12%, Cc1ccc(Nc2cc(C(=O)NC3CCCC3)c3ccccc3n2)cc1C -16.2%, CCOC(=O)c1c(C)n(-c2ccccc2)c2ccc(OC(=O)c3ccccc3Cl)cc12 0.508%, CC(C)COc1ccc(C(=O)NCC2OCCc3ccccc32)cc1 (stereo unspecified) 2.96%, CCOc1ccc(CCNC(=O)C2CCCN(c3nnc(C)c4c(C)n(-c5ccccc5)nc34)C2)cc1 (stereo unspecified) -26.6%, CCCCCCCCCCCCCCCCCCO -1.71%, CCc1ccccc1Nc1nn2c(=O)c3ccc(C(=O)NCCc4ccccc4)cc3nc2s1 -21.5%, Cc1c(Cl)cccc1NC(=O)CN1C(=O)c2ccccc2Sc2ncccc21 -32.1%, Cc1cccc(C(=O)NC2(C(F)(F)F)N=C(c3ccccc3)N(Cc3ccccc3)C2=O)c1 (stereo unspecified) -19%, Cc1ccc(-c2c(CN3CCN(c4cc(Cl)ccc4C)CC3)csc2C)cc1 -20.8%, CC(=O)N1CCc2c(sc3c2c(=O)n(-c2ccccc2Cl)c(=O)n3C)C1 -5.68%, O=C(CSc1nc2ccccc2n1CC(=O)Nc1ccc(F)cc1F)Nc1ccc(F)cc1 5.49%, CCOc1ccc2c(c1)c(=O)c(S(=O)(=O)c1ccc(C)cc1)cn2CC(=O)Nc1ccc(C)cc1 -9.05%, COc1ccc(-n2c(SCc3nc(-c4ccc(C)cc4)no3)nnc2-c2ccncc2)cc1 -23.2%, CCn1c(=O)c2cc(C(=O)NCCc3cccc(C)c3)sc2c2ccccc21 -9.31%, COCCCN1CCc2nc(SCC(=O)Nc3ccc(C)c(Cl)c3)[nH]c(=O)c2C1 2.91%, CCCN(C(=O)C1CCN(S(=O)(=O)c2c(C)noc2/C=C/c2ccc(C)cc2)CC1)c1ccccc1F -2.57%, Cc1cccc(NC(=O)C2CCC(CNS(=O)(=O)c3ccc4c(c3)CCCC(=O)N4)CC2)c1C (stereo unspecified) -19.7%, CCN1CCOC(=O)C1CC(=O)Nc1ccccc1C(F)(F)F (stereo unspecified) -4.18%, Cc1nc(-c2ccc(F)cc2)sc1CCNC(=O)c1ccccc1 -8.02%, CC(=O)c1ccc(NC(=O)c2cccc(NC(=O)N3CCSc4ncccc43)c2)cc1 -10.3%, Cc1cc(C)cc(N(C)S(=O)(=O)c2nnc(NC(=O)COc3ccc(C)c(C)c3)s2)c1 -32.5%, CCOCCCNC(=O)c1c(NC(=O)Cc2coc3c(C)c(C)ccc23)sc2c1CCC2 -8.15%, COC(=O)c1cc(C)nc2c1c(=O)nc(SCc1cc(C)ccc1C)n2C1CC1 -24.3%, CCCN(Cc1cc2cc(C)ccc2[nH]c1=O)C(=O)c1cccc(Cl)c1 3.66%, COc1cc(OC)c(NC(=O)COc2ccccc2-c2nnc(-c3ccccc3)o2)cc1Cl -14.5%, CCc1ccc(S(=O)(=O)c2nnn3c2nc(N2CCOCC2)c2sccc23)cc1 -6.71%, CCc1c2c(nc3ccc(O)cc13)-c1cc3c(c(=O)n1C2)COC(=O)[C@]3(O)CC -37.1%, Cc1ccc(N2CC(c3nc(-c4ccc(Cl)cc4)no3)CC2=O)cc1F (stereo unspecified) -6.69%, Cc1cc(N2CCC(C(=O)Nc3ccc(F)cc3C)CC2)n2nc(C)c(-c3ccc(Cl)cc3)c2n1 6.68%, Cc1cc(-c2ccccc2)n2nc(-c3ccc(Cl)cc3)cc2n1 17.5%, Cc1cc(Br)ccc1NC(=O)C1CCCN(S(=O)(=O)c2cccc3nonc23)C1 (stereo unspecified) -14.2%, COc1ccccc1NC(=O)CSc1nnc(NC(=O)NC2CCCCC2)s1 29.7%, Cc1ccc(CNC(=O)C2CCN(S(=O)(=O)c3cccc4nonc34)CC2)cc1 -6.99%, COc1ccccc1/C=C/c1nc(C#N)c(N2CCN(C)CC2)o1 -11.2%, Cc1nn(-c2ccccc2)c2c1cc1c(=O)[nH]c(=O)nc-1n2-c1cccc(Cl)c1 -7.93%, Cc1cc(=O)c2cc(C(=O)Nc3ccc(C)c(C)c3)ccc2[nH]1 12%, CCc1ccc(NCc2cc3cc4c(cc3n(CC(=O)Nc3ccccc3OC)c2=O)OCCO4)cc1 -5.75%
